Measurements as given in patent US20200385465A1 (SHANGHAI NOVAMAB BIOPHARMACEUTICALS, published 2020).

Experiments:
[1] = target: T1, human full-length CD47 protein (human, UniProt Q08722); assay: flow cytometry on human erythrocytes, donor 2, anti-human Fc-FITC
T1 construct: whole, on cells; also called CD47 stably transferred cells; CD47 on the surface of erythrocyte

[2] = target: T1, human full-length CD47 protein; assay: flow cytometry on human erythrocytes, donor 1, anti-human Fc-FITC
[3] = target: T1, human full-length CD47 protein; assay: competition flow cytometry on CD47 stably transfected cells, antibody titrated against 5 µg hSIRPa (ECD)-Fc-Biotin
hCD47 (ECD)-Fc protein = target: T2, hCD47 (ECD)-Fc protein (human, UniProt Q08722 in part, limits assumed); assay: BLI, ForteBio Octet, Protein A probe, 30° C.
T2 construct: extracellular domain; Expressed in HEK293F, purified on Protein A; also called hCD47 (ECD)-Fc antigen; not shown: IgG1 Fc as encoded by the pFUSE-IgG1 vector

EC50 [1] [µg/mL] | EC50 [2] [µg/mL] | IC50 [3] [µg/mL] | Kd (hCD47 (ECD)-Fc protein) [nM] | Binder
0.644 | 0.662 |  |  | humanized CD47 antibody Fc fusion protein (MY2238) expressed by the CHO-S system (Fc fusion, also called candidate antibody MY2238) QVQLQESGGGLVQPGGSLRLSCAASGYAYTSDCMGWFRQTPGKGLEGVALIYTPGNSTNYADSVKGRFTISQDNSKSTVYLQMNSLRAEDTAMYYCAARRGACSLRLPFFYWGQGTLVTVSS[human IgG4 Fc with changes skipped]
 |  | 1.51 | 1.65 | humanized CD47 single domain antibody Fc fusion protein Nb1902-Fc (Fc fusion, Expressed in HEK293F; also called humanized single domain antibody Nb1902-Fc) QVQLQESGGGLVQPGGSLRLSCAASGYAYTSDCMGWFRQTPGKGLEGVALIYTPGNSTNYADSVKGRFTISQDNSKSTVYLQMNSLRAEDTAMYYCAARRGACSLRLPFFYWGQGTLVTVSS[human IgG4 Fc with changes skipped]
